# From the supplement of paper PMC12217912
# The list shows a part of the results. The full chains were built here from the parent and the listed change. Inactive controls read about 0.05.
# B1: TEV protease; numbered along this chain (parent)
# chain: MGESLFKGPRDYNPISSSICHLTNESDGHTTSLYGIGFGPFIITNKHLFRRNNGTLVVQSLHGVFKVKDTTTLQQHLVDGRDMIIIRMPKDFPPFPQKLKFREPQREERICLVTTNFQTKSMSSMVSDTSCTFPSGDGIFWKHWIQTKDGQCGSPLVSTRDGFIVGIHSASNFTNTNNYFTSVPKNFMELLTNQEAQQWVSGWRLNADSVLWGGHKVFMVKPEEPFQPVKEATQL
# Variants of: B1
# Experiment: raw area under fraction-flipped curve 0-4 h after induction (AUC4h, not background-subtracted), DNA-recorder readout of cleavage of the substrate (dimensionless); higher = more cleavage of the substrate by the protease variant
# Details: temperature: 34 °C; time window: 0-4 h after rhamnose induction
# Description: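 In vivo DNA recorder in E. coli TOP10(DE3) ΔrhaA at 34 °C. Each TEVp single-site mutant (parent TEVp 0) is paired with a single-site variant of the 7-mer TEVs (canonical ENLYFQ|S). The substrate sits between flexible linkers in a Bxb1-sfGFP-TEVs-SsrA fusion, so cleavage stabilises Bxb1 and speeds flipping of a recombination array, read by NGS. The value is the raw area under the fraction-flipped curve over 0-4 h after rhamnose induction (AUC4h), with ≥20 reads per time point. It is not background-subtracted; inactive controls average about 0.047.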
# 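Note: Bxb1 expression induced with 0.2% (w/v) L-rhamnose at OD600 near 0.5, cultures sampled hourly, flipped fraction per protease–substrate barcode pair counted by paired-end Illumina sequencing.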
Variant,area with substrate ENLYCQS,area with substrate ENLYDQS,area with substrate ENLYEQS,area with substrate ENLYGQS,area with substrate ENLYHQS,area with substrate ENLYIQS,area with substrate ENLYKQS,area with substrate ENLYMQS,area with substrate ENLYNQS,area with substrate ENLYPQS,area with substrate ENLYQQS,area with substrate ENLYTQS,area with substrate ENLYWQS,area with substrate ENLYYQS,area with substrate ENLYRQS,area with substrate ENLYSQS,area with substrate ENLYVQS,area with substrate ENLYLQS,area with substrate ENLYAQS
P89N,0.0694,0.0474,0.0645,0.054,0.0662,0.0904,0.0491,0.0792,0.0636,0.063,0.0497,0.0738,0.0708,0.0602,,,,,
P89S,0.0865,,0.0577,0.0527,0.0618,0.103,0.0893,0.0738,0.0581,0.0732,,0.0691,0.0715,0.0614,0.0658,0.0664,0.0983,,
T31A,0.115,0.0656,0.0687,0.061,0.0673,0.101,0.0541,0.0852,0.0542,0.0757,0.0689,,0.0851,0.0596,0.0595,0.085,,0.0652,
S60H,0.0998,0.0392,0.112,0.0575,0.0614,0.126,,0.102,0.0683,,,0.0769,,0.0746,0.0768,0.0745,0.122,0.073,
F38C,0.0847,0.0595,0.0644,0.0662,0.07,0.128,0.0634,0.0846,0.0583,0.0594,0.0604,0.0573,0.0613,0.0612,0.0637,0.0728,0.117,,
F38I,0.0681,0.0444,0.052,0.0674,0.0623,0.1,,0.0764,0.0729,0.07,0.0653,,0.0643,,0.0505,,,,
S4H,0.124,0.0527,0.0701,0.0454,0.0695,,0.0637,0.106,0.0714,0.102,0.0342,0.0943,0.09,0.0764,0.0575,0.0694,0.143,0.109,
R50K,0.0926,0.0674,,0.0732,,,0.0669,0.0704,0.0654,0.0585,0.0603,,0.0746,,0.0724,0.0719,0.0805,0.0741,
I36Y,0.0515,0.0366,0.0585,0.0468,0.0503,0.0542,0.0645,0.0572,0.0434,0.0535,,,0.044,0.0403,0.0468,,0.0571,0.0493,
I110D,0.0564,0.0588,0.0625,0.0422,0.0523,0.0717,0.0198,0.059,0.063,0.0573,0.0633,,0.0588,0.0418,0.0518,,,,
E231C,0.0748,,0.0739,0.0702,0.0762,0.13,0.0616,0.0706,0.0708,,0.061,,0.0677,0.0692,0.063,,0.0609,,0.0733
K90W,0.0885,0.0685,0.0997,,0.0701,0.108,,0.0782,0.0808,0.0618,,0.0804,0.0816,,,0.0767,0.13,,
L99D,0.058,0.0559,,0.0451,0.052,0.0752,,0.0668,0.0612,,0.0533,,0.0863,,,,0.0826,,
F226N,0.106,0.067,,0.0691,0.073,0.147,0.0688,0.0619,0.0616,0.0761,0.0711,0.0984,0.0829,0.0783,,,0.0975,0.0927,0.0808
F226H,,0.0526,0.0597,0.08,0.0672,0.127,0.0344,0.0906,0.0679,0.0995,0.0571,0.0839,0.0886,0.0632,0.0706,0.0804,0.111,,0.0687
F226M,0.116,,0.0708,0.0772,0.0609,0.108,0.0585,0.0728,0.0651,0.0718,0.0671,0.0528,0.0796,,0.0654,,0.124,,0.0857
Q105R,0.0784,0.0678,0.0671,0.0686,0.0691,0.123,,0.0804,0.0612,0.0687,0.0636,,0.0749,0.0748,0.0557,0.0663,0.112,,
I43E,0.0579,0.0523,0.0362,0.0424,0.044,0.0409,0.041,0.0402,0.0362,0.0462,0.0541,0.0423,0.048,0.0349,0.0473,0.0432,0.0595,0.0386,
P93M,0.09,0.0597,0.0569,0.139,0.0659,0.143,,,0.065,0.0729,0.0539,,0.0673,0.0599,0.0526,0.0571,0.115,,
N13E,0.0756,0.0682,0.0806,0.0405,0.0716,0.0963,0.0628,0.0929,0.0671,0.0722,0.0476,0.0894,0.0756,0.0758,0.0538,0.0555,,0.103,
N13P,0.0647,0.0643,0.0595,0.0636,0.0685,0.118,0.0614,0.0752,0.0704,0.0627,0.0667,0.0753,0.0749,0.0641,0.0621,,0.116,0.0889,
I86Q,0.0495,0.0517,0.0561,0.0351,0.0435,0.0298,0.0549,,0.0411,,0.0499,,0.0452,0.0496,,0.0297,,0.0392,
T44S,0.0723,,0.0607,0.0821,0.0655,0.144,0.0613,0.0832,0.0581,,0.0652,0.085,0.0735,0.0481,0.0678,,0.0977,0.0691,
T44P,0.0452,0.0407,0.0186,0.0508,0.0414,0.0482,0.05,0.0449,0.0342,0.0389,0.0432,,0.0431,0.042,,0.0421,,,
